These results are taken from PMC12136788.

Substitutions are numbered along the chain they refer to. Some of the results follow.

The chains are these.
B1: chr3:148802587:148802588:-_ENSG00000071794_ENST00000310053|hu_mus|hu_hu_hu_mus_False|18_78 (ssRNA)
RNA: GGGAGUUCUACAGUCCGACGAUCUCCAACAACUUGUCCUCUCAUAGUUCCAAAUAAAACGGAAUCUUGCUCUUCAUCACUCGUUAGGAAGUCAUCUGGAGGAAUAAUGUCUUGGAAUUCAAAACGUGGCAAGAAAGUUGAGUACAACAGAGGAUUGAGCAUCA
B2: chr22:32879901:32879902:+_ENSG00000100225_ENST00000397426|hu_mus|hu_hu_hu_mus_False|48_108 (ssRNA)
RNA: GGGAGUUCUACAGUCCGACGAUCCUCUGCCAUAUGCAUGGCAUCCUGAAUUGACUCAGCUUCAACAUUUUGACUAGGCCCUUCCAUACUGUCGUCAGUCCAGGCAUCAAAUGGGGUGGCCUGUCCUUGGGAUGAAUCAGUCCCCAACAGAGGAUUGAGCAUCA
B3: chr1:220276048:220276049:+_ENSG00000067704_ENST00000302637|hu_hu|hu_hu_hu_mus_True|8_108 (ssRNA)
RNA: GGGAGUUCUACAGUCCGACGAUCGCAAACAGCUUCAUUGGCGGGAAUUGUCCAAGGCUGGGUGGUCCAAACUAAAACGCUAACAGGGGAUGAGGCAUCUGUAAGAGACUCCAACUUCGGAGGAGGUUUUAAGAGAGGGAAUCUCAACAGAGGAUUGAGCAUCA
B4: chr3:148802587:148802588:-_ENSG00000071794_ENST00000310053|hu_mus|hu_hu_hu_mus_False|8_68 (ssRNA)
RNA: B1 RNA with G60C, G61A, U67A, G68C, C69U, C124U, C129A
B5: chrX:98862621:98862622:+_ENSMUSG00000034160_ENSMUST00000044475|mus_hu|mus_mus_mus_hu_False|58_58 (ssRNA)
RNA: GGGAGUUCUACAGUCCGACGAUCCUGCAUCUCCUUUAGAGUGUUUCCCAUAUUAGAGUAGGCAUCAGCAAAGGUAGGACUAAUUCGAAUAGCCUCCUUAUAAUGCAUCAGAGCUUCCUGCAGUUUUCCCUGCUGCUGCAGUACCAACAGAGGAUUGAGCAUCA
B6: chr2:11404176:11404177:-_ENSMUSG00000026773_ENSMUST00000114846|mus_hu|FALSE|FALSE (ssRNA)
RNA: GGGAGUUCUACAGUCCGACGAUCCAGGAGGCAGCGCAUGACAGCCUGGUGGGAGAUGACGAGGACAUUGCCCUGACGUUCCAGCUCCAUGAUGACAGGCUCCAGCCGCUGCACCAGGUCCUGGUAUGACUCCCCACCAGGAUACAACAGAGGAUUGAGCAUCA
B7: chr18:21005031:21005032:-_ENSMUSG00000033382_ENSMUST00000025177|mus_hu|motif|central (ssRNA)
RNA: GGGAGUUCUACAGUCCGACGAUCAAACUUCCAAAGCAAUGACAAAUCAGUCAACAAAAGUAGAACUUUCAAAGGGUUUCGGAAAGCCACUUCCACUGUAAUUGGUUCUUCUACAACUGCAAGUGGAAAUCUUGAAUUAUCUGACAACAGAGGAUUGAGCAUCA
B8: chr4:95690885:95690886:+_ENSMUSG00000028572_ENSMUST00000156910|mus_mus|mus_mus_mus_hu_False|38_108 (ssRNA)
RNA: GGGAGUUCUACAGUCCGACGAUCUUUAUUUUUAGAAAAAUACCAUGCUAAAAUAUUUUCAAAGGCUUAUUUUAUUUUACCAGAAGUCACAGGCAAGCAGACACCAUAAGAAUAUAUGAAAAUGAAACUCAACAAUAUAACUGUCAACAGAGGAUUGAGCAUCA
B9: chr2:130852214:130852215:+_ENSMUSG00000027312_ENSMUST00000028781|mus_mus|motif|central (ssRNA)
RNA: GGGAGUUCUACAGUCCGACGAUCCAGGUGGAUCUUUGUGAGUUCAGUCCAGCCUGAUCUACAUAGUGAGUUCCAGGCCAGCGGGGACUACACAGUGAGACCCUGUCUCCAAAAACCAAAACAAAACAAAACAAGGCCCCCAUCCAACAGAGGAUUGAGCAUCA
B10: chr17:64801638:64801639:+_ENSG00000154229_ENST00000413366|hu_mus|hu_hu_hu_mus_False|18_68 (ssRNA)
RNA: GGGAGUUCUACAGUCCGACGAUCUAUAUAUAUAUAUACAUAUGUACACAUAUAUAGUAAAACCCUAAUCUAUCACGUAAAGUAGCCAUUCAUUUUUAAAAUUACAUCUACAUUAAAAAAGUAAUCUAUCUGAUAGAGUGCCAGCAACAGAGGAUUGAGCAUCA
B11: chr10:133753640:133753641:+_ENSG00000175470_ENST00000482010|hu_mus|FALSE|FALSE (ssRNA)
RNA: GGGAGUUCUACAGUCCGACGAUCAGUUUUAUCAUUUGUAGAGAGUAGAAAAUGAGCAGCAUUCUGUUGCGGUAACCACCUGAUUUUAUUAAUUUUUUCUUCAAUUUCUAGACUUUUCAAAUAGUCAAACUCUGGCUCAUGACUCAACAGAGGAUUGAGCAUCA
B12: 59659724_59663069_2067_3pUTR_ENSMUSG00000039585_ENSMUST00000128341|mouse|control|control (ssRNA)
RNA: GGGAGUUCUACAGUCCGACGAUCGAACACCAAUGGACAAAGUCUUAGUAUCUUGUUCCAAAUCUUUACUAUUCAGAAGUGCAUGAUUAAUACGAAACACUAUCCAGUCAAACAGAGCACUAUAUAAAGACUUAGCCAUGGAGUCAACAGAGGAUUGAGCAUCA
B13: 28147991_28148111_2029_3pUTR_ENSMUSG00000031483_ENSMUST00000033873|mouse|control|control (ssRNA)
RNA: GGGAGUUCUACAGUCCGACGAUCCAGUUUCCUAGGGUGACUCACUGGAGCCGACUCUCAAGUGGCUGCCUGCUCUCUUCAUCAGUGUCAGACAAAGCCCCAGCACAGGCCACAGGCACUACUACUUGGGUGUCAUCUGGCUGGCAACAGAGGAUUGAGCAUCA
B14: chr1:60041781:60041782:+_ENSMUSG00000041040_ENSMUST00000036540|mus_hu|mus_mus_mus_hu_False|18_28 (ssRNA)
RNA: GGGAGUUCUACAGUCCGACGAUCAAGUUUACAAUAGUAAAGUAAAUGCAGUAGUGGCAAAUUUUCUUUUAUUUUCCUUCACAAAAGAAAAUCUUUAUAACCCAGUCCAAUCCCAGACAGAGAAAGCAGCUAUAAAUUCUGACUCAACAGAGGAUUGAGCAUCA
B15: chr1:52222005:52222006:-_ENSMUSG00000026103_ENSMUST00000114513|mus_mus|FALSE|FALSE (ssRNA)
RNA: GGGAGUUCUACAGUCCGACGAUCACCAACAGUUAGGCAGUAGAGGAAGAGAAGAUACUCAGGGCCUCCCACAAAGGGGUGCUAUCUUGAUGCAGACAUUUGACAGCAGGAUUCAAAGUAAGUGUUAUUUGUAGCUUUUCCUAACAACAGAGGAUUGAGCAUCA
B16: chr7:56126341:56126342:+_ENSG00000146731_ENST00000540286|hu_mus|hu_hu_hu_mus_True|68_108 (ssRNA)
RNA: GGGAGUUCUACAGUCCGACGAUCCAUAUUUCUCCUUUUGGCUCUGCGCAGAGCUACGAUCCCUUCUUUUGAAAGAGCAUCUAAGGAAAAGGGGUCAAUCCCCUUUUGAUUAAUAACGACAAAUCCUUUAUCUGAGUCACCACACAACAGAGGAUUGAGCAUCA
B17: chr14:66974463:66974464:+_ENSMUSG00000022044_ENSMUST00000074523|mus_mus|FALSE|FALSE (ssRNA)
RNA: GGGAGUUCUACAGUCCGACGAUCUUGUAGGAUGAUUUAUUCAGGGGAUCAGACAAGAAGCAAGAGCAGAACAGAGACACUAGUGGGAGUUCCUUCAUCUUCUCCUUAUAGGCUGCAAGAGUCAUGUUGGCUGGAAUCUGGUGGCAACAGAGGAUUGAGCAUCA
B18: 234746276_234749352_2199_CDS_ENSG00000123485_ENST00000411486|human|control|control (ssRNA)
RNA: GGGAGUUCUACAGUCCGACGAUCCCUGUAAGACGUGUUCUCUCCUCUCUCUUCUGAGUUGGGCUGUGAAGAGCUGCCCUGGUCUCCCGGUCUGACGGUGUUGUCCACCCCAUCUGAGGCACCCAGGGAAUUGCCCUGGCGUCCCAACAGAGGAUUGAGCAUCA
B19: chr11:44375045:44375046:+_ENSMUSG00000019189_ENSMUST00000019333|mus_mus|FALSE|FALSE (ssRNA)
RNA: GGGAGUUCUACAGUCCGACGAUCACAGAGGGCCACAACAAACUCCAGCAGACGAUAAGUGCCAUUCACGUAGUAGAUGACGUCAUCCAUGUUUUCCACGGGCUCUUUGCGGAAUUCCUCAACCAUAAAUAAGACGUAAAUAAACAACAGAGGAUUGAGCAUCA
B20: chr8:104447970:104447971:+_ENSG00000164934_ENST00000297579|hu_hu|FALSE|FALSE (ssRNA)
RNA: GGGAGUUCUACAGUCCGACGAUCAUAUACCUCCCUGCUUCGACUUUUGUCUACAGGAAAGAUUCGAAUAGAUUUAUCGAAACUAGCAGACACAAACUCCUUCCCAGUGGGAGAGUAAUCCACAUCAAGCACUGCAGAUACAUGCAACAGAGGAUUGAGCAUCA
B21: chr2:42509997:42509998:+_ENSG00000143924_ENST00000318522|hu_mus|hu_hu_hu_mus_True|1_58 (ssRNA)
RNA: GGGAGUUCUACAGUCCGACGAUCUCGCUGAGUCCUCUCCUCAUAAUUAAACAGGACUACCACUGAGGCGAUAAAAUAAACUAUUUUCCCUGUGGGAAGCAGGUAUACAUUCGCUCUACAGUCCUUUCCUCGAUAACCAUAUGCCAACAGAGGAUUGAGCAUCA
B22: chr7:86439405:86439406:+_ENSMUSG00000039202_ENSMUST00000037315|mus_hu|motif|central (ssRNA)
RNA: GGGAGUUCUACAGUCCGACGAUCUUCCUUGAAGAGUUGUACAGUUGGGCCGGUCAGGUCAGAUCUCUUAUUCAAACAAACCGGAAAGCUGCGUGUGAUUGACUACAGGUGCUCAGCUCGCCCCCAGUCUGGUUCCUGCAGCUCCAACAGAGGAUUGAGCAUCA

The target in this experiment is T1, UNK ZnF1-3 (human, UniProt Q9C0B0 31-174).
T1 sequence: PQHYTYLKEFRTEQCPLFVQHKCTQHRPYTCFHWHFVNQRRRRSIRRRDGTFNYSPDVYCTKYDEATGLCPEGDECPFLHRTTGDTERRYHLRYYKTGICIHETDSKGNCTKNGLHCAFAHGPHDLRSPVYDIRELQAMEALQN
The experiment can be described thus: nsRBNS (natural sequence RNA bind-n-seq); RBNS binding buffer (assumed for nsRBNS): 25 mM Tris pH 7.5, 150 mM KCl, 3 mM MgCl2, 0.01% Triton X-100, 500 ug/ml BSA, 20 U/ml SUPERase-In, 4 C; UNK is unkempt and MSI1 is Musashi-1; names of the RNAs are library labels; protein concentration not given here; high values mean tight binding.
B1 displayed a binding signal of 1.4 enrichment R.
Regarding B2, the binding signal stood at 0.722 enrichment R.
On to B3, for which the binding signal came out at 2.5 enrichment R.
For B4 the value was 1.08 enrichment R; for B5, 0.882 enrichment R.
B6 came in with a binding signal of 0.786 enrichment R.
For the molecule B7, the binding signal came out at 0.938 enrichment R.
Regarding B8, the binding signal is 2.61 enrichment R.
For B9 the value was 0.958 enrichment R; for B10, 0.935 enrichment R.
For the molecule B11, the binding signal is 1.02 enrichment R.
Consider B12, for which the binding signal was 1.04 enrichment R.
The molecule B13 registered a binding signal of 0.586 enrichment R.
Molecule B14 had a binding signal of 0.819 enrichment R.
B15: the binding signal was found to be 1.34 enrichment R.
The molecule B16 came in with a binding signal of 1.64 enrichment R.
As to B17, the binding signal was 1.71 enrichment R.
For B18 the value was 0.781 enrichment R.
For B19 the value was 1.74 enrichment R.
As to B20, the binding signal came out at 0.894 enrichment R.
For B21 the value was 1.66 enrichment R; for B22, 1.15 enrichment R.
